# The other results are listed elsewhere or left out. Repeats are few or missing, and single values can be far off.
# Experiments:
# [1] = system: Mef2d microexon dual Nano/Firefly luciferase splicing reporter in Neuro-2a cells; assay: B-score of Firefly/Nano luminescence ratio, V1 Mef2d microexon reporter (B-score (plate-normalised)); higher = more Mef2d microexon inclusion; settings: 24 h
# [2] = system: Mef2d microexon dual Nano/Firefly luciferase splicing reporter in Neuro-2a cells; assay: B-score of Nano/Firefly luminescence ratio, V2 Mef2d microexon reporter (B-score (plate-normalised)); higher = more Mef2d microexon inclusion; settings: 24 h
# 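For B-score of Nano/Firefly luminescence ratio, V2 Mef2d microexon reporter in this document: compounds at 4 µM (PKI library 0.5 µM) on Dox-inducible N2A Flp-In cells with PEST-tagged luciferases, 384-well plates, B-score from per-plate median-polish residual over median absolute residual.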
Compound,B-score [1],B-score [2]
CC(=O)OCC1OC(Oc2ccc(CC(=O)c3ccccc3)cc2)C(OC(C)=O)C(OC(C)=O)C1OC(C)=O (centres undefined) (4 µM),4.19,0.937
CCCc1nn(C)cc1C(=O)ON=C(N)c1ccc(Cl)cc1 (4 µM),14.1,1.62
CCCCCCCC/C=C\CCCCCCCC(=O)NCCc1ccc(O)c(O)c1 [N-Oleoyldopamine] (4 µM),5.1,3.65
CCN1C(=CC(=S)Nc2ccccc2)Sc2ccccc21 (4 µM),2.29,4.55
NC(=NOC(=O)Nc1ccc(Cl)cc1)c1ccc(C2SCCS2)cc1 (4 µM),8.6,0.932
COc1c(Cl)cc(Cl)c(OC)c1C(=O)ON=C(N)c1ccc([N+](=O)[O-])o1 (4 µM),5.23,3.24
O=[N+]([O-])c1ccc(Nc2ccc3c(c2)OCCO3)cc1C(F)(F)F (4 µM),3.67,6.52
Cc1noc(C)c1C(=O)ON=C(N)c1ccc(C(F)(F)F)cc1 (4 µM),18,2.48
Cc1cc(-c2c(C(=O)Sc3ccccc3)c(C)nn2-c2cccc(C(F)(F)F)c2)no1 (4 µM),6.07,1.09
NC(=NOC(=O)N1CCOCC1)c1cccc(C(F)(F)F)c1 (4 µM),8.19,3.58
CC(C)(C)c1ccc2cc(C#N)c(C#N)cc2c1 (4 µM),-2.07,-8.59
COC(=O)Nc1nc2cc(C(=O)c3ccccc3)ccc2[nH]1 (4 µM),-9.94,-14.3
CC(=O)Oc1cccc2c1C(=O)C=CC2=O (4 µM),7.59,12.4
COc1cc(CC(=O)OCC(=O)c2ccc3c(c2)OCCO3)cc(OC)c1OC (4 µM),-7.95,-10.4
O=C(Nc1ccccc1)ON=C1CC2CCCC(C1)N2Cc1ccccc1 (4 µM),14.4,6.57
CN(C)C(=O)n1nnnc1Cc1ccc(-c2ccccc2)cc1 (4 µM),-4.21,-10.6
Cc1ccc(C(=O)CSc2nc3cc(C(F)(F)F)ccc3n2C(C)C)cc1 (4 µM),3.29,2.89
Cc1onc(-c2ccccc2)c1C(=O)ON=C(N)c1ccc([N+](=O)[O-])o1 (4 µM),3.37,4.61
C(=C\c1ccccc1)/C(=N/Nc1ccccc1)c1ccccc1 (4 µM),0.365,5.71

Compound,B-score [1],B-score [2]
O=C(CC1NCCN(Cc2ccccc2)C1=O)Nc1ccccc1 (centres undefined) (4 µM),-1.43,-8.24
CNS(=O)(=O)Nc1nccc(Cc2c(C)c3ccc(Oc4ncccn4)cc3oc2=O)c1F (0.5 µM),5.13,4.44
Cc1cccc(Nc2cc(Nc3ccc4c(c3)n(C)c(=O)n4C)ncn2)c1 (4 µM),-6.2,-2.26
Cc1nc(C(N)=NOC(=O)c2c(-c3c(Cl)cccc3Cl)noc2C)cs1 (4 µM),3.12,3.97
COc1ccccc1OCCOc1ccccc1OC (4 µM),-0.236,9.51
COc1cccc(C=C(C#N)C(=O)c2ccc(C(C)(C)C)cc2)c1O (4 µM),8.43,1.83
CC1(c2ccc([N+](=O)[O-])cc2)NN=C(c2ccccc2)S1 (centres undefined) (4 µM),13.8,2.9
N#CC(C#N)=C1c2cc([N+](=O)[O-])ccc2-c2c(C(=O)N3CCCCC3)cc([N+](=O)[O-])cc21 (4 µM),-1.35,-3.54
N#Cc1ccc(Sc2cccs2)c([N+](=O)[O-])c1 (4 µM),-2.02,-3.81
COc1ccc2ccccc2c1C=Nc1ccc(-c2ccc(N=Cc3c(OC)ccc4ccccc34)cc2)cc1 (4 µM),-2.37,-4.11
O=C(NOCC(O)CO)c1cc(Br)c(F)c(F)c1Nc1ccc(I)cc1F (centres undefined) (0.5 µM),4.78,4.43
COc1cc(OC)c(/C=C2/C(=O)Nc3ccccc32)c(OC)c1 (4 µM),-11.4,-11.3
CC(=O)Nc1ccc(Nc2ncc(C(F)(F)F)cc2Cl)cc1 (4 µM),-4.87,-9.52
COc1ccc(C)cc1Cn1c(-c2nonc2N)nc2ccccc21 (4 µM),-7.55,-8.98
Cc1onc(-c2c(Cl)cccc2Cl)c1C(=O)SCC(=O)Nc1ccc(Cl)cc1 (4 µM),-4.5,-5.37
Cn1c(=O)c(C(N)=NOC(=O)c2ccc(Cl)cc2)cn(-c2ccccc2)c1=O (4 µM),7.56,2.44
O=C1C(=C2NC(c3ccccn3)C3C(=O)N(c4ccc(OC(F)(F)F)cc4)C(=O)C23)C(=O)c2ccccc21 (centres undefined) (4 µM),7.34,7.45
C[S+]([O-])c1sc(C#N)c2c1C(=O)CC(C)(C)C2 (centres undefined) (4 µM),2.55,2.23
